Source: the supplement of paper PMC9588766
Where a name gives a salt, the structure may show the parent alone. Whole data set: some 1,900 compounds, median “cell viability of compound + 1 nM pemigatinib relative to pemigatinib-only (DMSO) wells” near 0.95, cut for the lowest 2% near 0.22. This is one part of the list.

tested on: PDC-DUC18828; experiment: cell viability of compound + 1 nM pemigatinib relative to pemigatinib-only (DMSO) wells (fraction); PDC-DUC18828 is a patient-derived cholangiocarcinoma cell line; higher = less growth inhibition; conditions: first compound 1 µM; pemigatinib concentration 1 nM; 72 h
Procedure: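 Selleck Bioactive library screen in the patient-derived FGFR2 fusion-positive ICC cell line PDC-DUC18828 (500 cells/well). Each compound was tested at 1 uM with 1 nM pemigatinib, in triplicate, for 72 h. Viability was read by CellTiter-Glo and normalised to plate DMSO controls. Value is the paper's averaged normalised viability.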

| Structure (SMILES) | cell viability |
| --- | --- |
| CN1CCN(C2=Nc3ccccc3Oc3ccc(Cl)cc32)CC1 [Loxapine Succinate] + CCN1C(=O)N(c2c(F)c(OC)cc(OC)c2F)Cc2cnc3[nH]c(CN4CCOCC4)cc3c21 [pemigatinib] | 0.981 |
| CC(C)CC(N)=O [Isovaleramide] + CCN1C(=O)N(c2c(F)c(OC)cc(OC)c2F)Cc2cnc3[nH]c(CN4CCOCC4)cc3c21 [pemigatinib] | 0.993 |
| COc1c2occc2cc2ccc(=O)oc12 [Methoxsalen] + CCN1C(=O)N(c2c(F)c(OC)cc(OC)c2F)Cc2cnc3[nH]c(CN4CCOCC4)cc3c21 [pemigatinib] | 1.02 |
| N=C(NCCCCCCNC(=N)NC(=N)Nc1ccc(Cl)cc1)NC(=N)Nc1ccc(Cl)cc1 [Chlorhexidine HCl] + CCN1C(=O)N(c2c(F)c(OC)cc(OC)c2F)Cc2cnc3[nH]c(CN4CCOCC4)cc3c21 [pemigatinib] | 0.887 |
| N#Cc1ccc(C(c2ccc(C#N)cc2)n2cncn2)cc1 [Letrozole] + CCN1C(=O)N(c2c(F)c(OC)cc(OC)c2F)Cc2cnc3[nH]c(CN4CCOCC4)cc3c21 [pemigatinib] | 0.991 |
| Clc1ccc(CCC(Cn2ccnc2)Sc2c(Cl)cccc2Cl)cc1 (configuration not stated) [Butoconazole nitrate] + CCN1C(=O)N(c2c(F)c(OC)cc(OC)c2F)Cc2cnc3[nH]c(CN4CCOCC4)cc3c21 [pemigatinib] | 0.98 |
| C[C@@]1(C(=O)Nc2ccc(F)nc2)CCCN1c1nc(Nc2cc(C3CC3)n[nH]2)c2cccn2n1 + CCN1C(=O)N(c2c(F)c(OC)cc(OC)c2F)Cc2cnc3[nH]c(CN4CCOCC4)cc3c21 [pemigatinib] | 0.688 |
| CN(C)C(=O)Nc1cccc(-c2ccc(N(C)C)cc2)c1 [Atglistatin] + CCN1C(=O)N(c2c(F)c(OC)cc(OC)c2F)Cc2cnc3[nH]c(CN4CCOCC4)cc3c21 [pemigatinib] | 0.956 |
| O=C(Nc1cccc(Cl)c1)c1ccccn1 + CCN1C(=O)N(c2c(F)c(OC)cc(OC)c2F)Cc2cnc3[nH]c(CN4CCOCC4)cc3c21 [pemigatinib] | 0.902 |
| C[C@@H]1C[C@H]2[C@@H]3C[C@H](F)C4=CC(=O)C=C[C@]4(C)[C@@]3(F)[C@@H](O)C[C@]2(C)[C@@]1(O)C(=O)CO [Flumethasone] + CCN1C(=O)N(c2c(F)c(OC)cc(OC)c2F)Cc2cnc3[nH]c(CN4CCOCC4)cc3c21 [pemigatinib] | 0.883 |
| O=C(NC[C@H]1CN(c2ccc(N3CCOCC3=O)cc2)C(=O)O1)c1ccc(Cl)s1 [Rivaroxaban] + CCN1C(=O)N(c2c(F)c(OC)cc(OC)c2F)Cc2cnc3[nH]c(CN4CCOCC4)cc3c21 [pemigatinib] | 0.867 |
| Cc1nnc(C(=O)NC(C)(C)c2nc(C(=O)NCc3ccc(F)cc3)c(O)c(=O)n2C)o1 [Raltegravir (MK-0518)] + CCN1C(=O)N(c2c(F)c(OC)cc(OC)c2F)Cc2cnc3[nH]c(CN4CCOCC4)cc3c21 [pemigatinib] | 0.97 |
| c1ccc(NCc2ccc(CNc3ccccn3)cc2)nc1 + CCN1C(=O)N(c2c(F)c(OC)cc(OC)c2F)Cc2cnc3[nH]c(CN4CCOCC4)cc3c21 [pemigatinib] | 0.885 |
| CN1CCN(Cc2ccc(Nc3ncc(Cl)c(Nc4ccccc4S(=O)(=O)N(C)C)n3)cc2)CC1 + CCN1C(=O)N(c2c(F)c(OC)cc(OC)c2F)Cc2cnc3[nH]c(CN4CCOCC4)cc3c21 [pemigatinib] | 0.839 |
| COC(=O)c1ccc2c(c1)nc(NC(=O)c1ccccc1)n2CCCc1ccccc1 + CCN1C(=O)N(c2c(F)c(OC)cc(OC)c2F)Cc2cnc3[nH]c(CN4CCOCC4)cc3c21 [pemigatinib] | 0.959 |
| COc1c(C)c(C(=O)c2ccc(N)c(C(=O)O)c2)n2ccccc12 + CCN1C(=O)N(c2c(F)c(OC)cc(OC)c2F)Cc2cnc3[nH]c(CN4CCOCC4)cc3c21 [pemigatinib] | 0.968 |
| COc1nccc(-c2c(-c3ccc(F)cc3)ncn2C2CCC(O)CC2)n1 (configuration not stated) + CCN1C(=O)N(c2c(F)c(OC)cc(OC)c2F)Cc2cnc3[nH]c(CN4CCOCC4)cc3c21 [pemigatinib] | 0.917 |
| CN[C@@H](C)C(=O)N[C@H](C(=O)N1CCC[C@H]1c1nc(C(=O)c2ccc(F)cc2)cs1)C1CCCCC1 + CCN1C(=O)N(c2c(F)c(OC)cc(OC)c2F)Cc2cnc3[nH]c(CN4CCOCC4)cc3c21 [pemigatinib] | 0.943 |
| Cc1c(C(=O)Nc2ccc(Oc3ccnc4[nH]cc(-c5ccccc5)c34)c(F)c2)c(=O)n(-c2ccc(F)cc2)n1C + CCN1C(=O)N(c2c(F)c(OC)cc(OC)c2F)Cc2cnc3[nH]c(CN4CCOCC4)cc3c21 [pemigatinib] | 0.842 |

| Structure (SMILES) | cell viability |
| --- | --- |
| CC(C)C[C@H](NP(=O)(O)O[C@@H]1O[C@@H](C)[C@H](O)[C@@H](O)[C@H]1O)C(=O)N[C@@H](Cc1c[nH]c2ccccc12)C(=O)O [Phosphoramidon Disodium Salt] + CCN1C(=O)N(c2c(F)c(OC)cc(OC)c2F)Cc2cnc3[nH]c(CN4CCOCC4)cc3c21 [pemigatinib] | 0.984 |
| COc1ccc(-c2ccc3c(N4CCOC[C@@H]4C)nc(N4CCOC[C@@H]4C)nc3n2)cc1CO + CCN1C(=O)N(c2c(F)c(OC)cc(OC)c2F)Cc2cnc3[nH]c(CN4CCOCC4)cc3c21 [pemigatinib] | 0.238 |
| COc1ccc2c(c1)CCC1C2CCC2(C)C(NCCCCCCN3C(=O)C=CC3=O)CCC12 (configuration not stated) + CCN1C(=O)N(c2c(F)c(OC)cc(OC)c2F)Cc2cnc3[nH]c(CN4CCOCC4)cc3c21 [pemigatinib] | 0.805 |
| Nc1c(CC(=O)O)cccc1C(=O)c1ccccc1 [Amfenac Sodium Monohydrate] + CCN1C(=O)N(c2c(F)c(OC)cc(OC)c2F)Cc2cnc3[nH]c(CN4CCOCC4)cc3c21 [pemigatinib] | 0.985 |
| CC(C)(C)C(=O)Nc1ccc2c(c1)C(=O)C(=O)c1ccccc1-2 + CCN1C(=O)N(c2c(F)c(OC)cc(OC)c2F)Cc2cnc3[nH]c(CN4CCOCC4)cc3c21 [pemigatinib] | 1.04 |
| COc1ccc([C@@H]2CC(=O)c3c(O)cc(O)cc3O2)cc1O [Hesperetin] + CCN1C(=O)N(c2c(F)c(OC)cc(OC)c2F)Cc2cnc3[nH]c(CN4CCOCC4)cc3c21 [pemigatinib] | 1.06 |
| CCCc1cc(C)[nH]c(=O)c1CNC(=O)c1cc(-c2ccc(N3CCN(C(C)C)CC3)nc2)cc2c1cnn2C(C)C + CCN1C(=O)N(c2c(F)c(OC)cc(OC)c2F)Cc2cnc3[nH]c(CN4CCOCC4)cc3c21 [pemigatinib] | 0.976 |
| CC(=O)Oc1ccccc1C(=O)Nc1ncc([N+](=O)[O-])s1 [Nitazoxanide] + CCN1C(=O)N(c2c(F)c(OC)cc(OC)c2F)Cc2cnc3[nH]c(CN4CCOCC4)cc3c21 [pemigatinib] | 1.02 |
| NC(=O)c1ccc(N(C(N)=O)c2c(F)cccc2F)nc1-c1ccc(F)cc1F + CCN1C(=O)N(c2c(F)c(OC)cc(OC)c2F)Cc2cnc3[nH]c(CN4CCOCC4)cc3c21 [pemigatinib] | 0.899 |
| O=C(O)CCc1nc(-c2ccccc2)c(-c2ccccc2)o1 [Oxaprozin] + CCN1C(=O)N(c2c(F)c(OC)cc(OC)c2F)Cc2cnc3[nH]c(CN4CCOCC4)cc3c21 [pemigatinib] | 1.02 |
| O=C(O)CCCc1c[nH]c2ccccc12 [3-Indolebutyric acid (IBA)] + CCN1C(=O)N(c2c(F)c(OC)cc(OC)c2F)Cc2cnc3[nH]c(CN4CCOCC4)cc3c21 [pemigatinib] | 0.948 |
| O=C(c1cc(Cc2n[nH]c(=O)c3ccccc23)ccc1F)N1CCN(C(=O)C2CC2)CC1 + CCN1C(=O)N(c2c(F)c(OC)cc(OC)c2F)Cc2cnc3[nH]c(CN4CCOCC4)cc3c21 [pemigatinib] | 1.03 |
| O=C1c2ccccc2C(=O)C1c1ccccc1 [Phenindione] + CCN1C(=O)N(c2c(F)c(OC)cc(OC)c2F)Cc2cnc3[nH]c(CN4CCOCC4)cc3c21 [pemigatinib] | 1.03 |
| c1ccc(CC2=NCCN2)cc1 [Tolazoline HCl] + CCN1C(=O)N(c2c(F)c(OC)cc(OC)c2F)Cc2cnc3[nH]c(CN4CCOCC4)cc3c21 [pemigatinib] | 0.978 |
| CC(C)(Oc1ccc(CCNC(=O)c2ccc(Cl)cc2)cc1)C(=O)O [Bezafibrate] + CCN1C(=O)N(c2c(F)c(OC)cc(OC)c2F)Cc2cnc3[nH]c(CN4CCOCC4)cc3c21 [pemigatinib] | 0.956 |
| CC[C@H]1OC(=O)[C@H](C)[C@@H](O[C@H]2C[C@@](C)(OC)[C@@H](O)[C@H](C)O2)[C@H](C)[C@@H](O[C@@H]2O[C@H](C)C[C@H](N(C)C)[C@H]2O)[C@](C)(O)C[C@@H](C)C(=O)[C@H](C)[C@@H](O)[C@]1(C)O [Erythromycin] + CCN1C(=O)N(c2c(F)c(OC)cc(OC)c2F)Cc2cnc3[nH]c(CN4CCOCC4)cc3c21 [pemigatinib] | 1.09 |
| CO[C@H]1/C=C/O[C@@]2(C)Oc3c(C)c(O)c4c(O)c(c(/C=N/N5CCN(C)CC5)c(O)c4c3C2=O)NC(=O)/C(C)=C\C=C\[C@H](C)[C@H](O)[C@@H](C)[C@@H](O)[C@@H](C)[C@H](OC(C)=O)[C@@H]1C [Rifampin] + CCN1C(=O)N(c2c(F)c(OC)cc(OC)c2F)Cc2cnc3[nH]c(CN4CCOCC4)cc3c21 [pemigatinib] | 1.04 |
| Cc1c(Cl)cccc1Nc1ccccc1C(=O)O [Tolfenamic Acid] + CCN1C(=O)N(c2c(F)c(OC)cc(OC)c2F)Cc2cnc3[nH]c(CN4CCOCC4)cc3c21 [pemigatinib] | 0.992 |
